The campaign covered roughly 420,000 compounds. About 64,000 (15%) were called active. Inconclusive results, whose numbers are uncertain, are shown with a selection of clear calls. Calls follow the shape of the dose curve; as a rule, active = well fitted inhibition curve with a large enough effect; inconclusive = small, poorly fitted or top-dose-only effect; inactive = flat fitted curve, though single readings scatter. No potency is given beside an inconclusive call; the fits are too rough.
assay: qHTS for Inhibitors of human tyrosyl-DNA phosphodiesterase 1 (TDP1): qHTS in cells in absence of CPT; details: DT40 Tdp1-/- hTDP1 cells, no CPT, ATP luminescence, 48 h; activity change, negative = growth inhibition: at 46.2 µM (top of the series) unless noted; also: nearly all actives have a fitted effect of over 55% in size
Summary of the method: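 No-CPT arm: Tdp1-/-;hTDP1 DT40 cells (400/well) plus compounds, incubated ≥48 hr at 37 °C. Readout CellTiter-Glo luminescence.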
% is scaled to controls: 0 for no effect and ±100 for the full control effect; potency is read from the fitted curve at half-maximal effect; tags tell the direction and shape of the fitted curve.

SMILES	Potency	activity change, negative = growth inhibition
CCc1nc2cccnc2n1-c1ccc(CC(=O)Nc2ccc(C)cc2)cc1	inconclusive [inhibitor, single point]	–
COCC1CCN(C(=O)c2cc(COc3ccc(OC)c4ccccc34)on2)C1 (centres undefined)	inconclusive [inhibitor, single point]	–
O=C(CN1C(=O)CSc2ccc(S(=O)(=O)N3CCCCC3)cc21)NCc1ccccc1Cl	–	inactive: -26.4%
Cc1ccc(SCCC(=O)NC(C(C)C)C(C)C)cc1	–	inactive: -24.3%
COc1ccc([N+](=O)[O-])cc1NC(=O)c1ccccc1N(C)S(C)(=O)=O	–	inactive: -22.5%
O=C(CSc1ncnc2ccccc12)Nc1cccc(S(=O)(=O)N2CCCC2)c1	inconclusive [inhibitor, partial curve, poor fit]	–
CNC(=O)COc1ccc(S(=O)(=O)N2CCCC2)cc1	inconclusive [inhibitor, single point]	–
Cc1ccc(S(=O)(=O)N(CC(O)CN2C(=O)NC(C)(C)C2=O)c2ccccc2)cc1 (centres undefined)	–	inconclusive: -9.21% [inhibitor]
Cc1ccc(C(=O)NCC#N)cc1	inconclusive [inhibitor, partial curve]	–
CCN(CC)S(=O)(=O)c1cc(C(=O)Nc2cc(S(=O)(=O)N3CCOCC3)ccc2N2CCN(C)CC2)ccc1C	inconclusive [inhibitor, single point]	–
O=C(Nc1c2ccccc2nc2ccccc12)C(Cl)(Cl)Cl	active: 23.1 µM	–
CCOC(=O)CSc1nc2cc(S(=O)(=O)Nc3ccccc3OC)ccc2o1	–	inconclusive: -58.3% [inhibitor]
CN(C(=O)c1ccc(NC(=O)Cc2ccc(NC(=O)C3CCN(C(=O)CCc4ccccc4)CC3)cc2)cc1)C1CCCC1	active: 20.6 µM	–
Cc1ccc(S(=O)(=O)N2CCN(C(C)C(=O)Nc3ccccc3-c3ccccc3)CC2)cc1 (centres undefined)	active: 16.4 µM	–
CCCC[C@@H]1CNC(=S)N1CC1CCCCC1	inconclusive [inhibitor, single point]	–
COc1ccc(-c2[nH]c3ccccc3c2SCCNC(=O)c2ccccc2)cc1	active: 9.2 µM	–
COc1ccc(-n2ccn(Cc3ccccc3Cl)c(=O)c2=O)cc1OC	–	inactive: -18%
O=[N+]([O-])c1cc(C(F)(F)F)ccc1N1CCN(S(=O)(=O)c2ccc3c(c2)CCCC3)CC1	inconclusive [inhibitor, single point]	–
CC(=O)NC(NC(C)=O)c1ccc(Br)cc1	–	inactive: -16.5%
COc1ccc(C(=O)Nc2nc(C)c(C)s2)cc1OC	inconclusive [inhibitor, partial curve]	–
CCOC(=O)c1ccc(OCCN2C[C@H](O)[C@@H](O)[C@H](O)[C@H]2CO)cc1	inconclusive [inhibitor, full curve, poor fit]	–
CCCCCCCCCCCC(=O)OC[C@@H](O)C1OC[C@H](O)[C@H]1O (some centres undefined)	–	inactive: -15.4%
O=C(NC(=S)Nc1cccc(CO)c1)c1ccc(-c2ccccc2)cc1	active: 13 µM	–
CCN(C(=O)CSc1nc2ccccc2n1CC(=O)Nc1ccccc1C)c1ccccc1	active: 20.6 µM	–
CC1CCCN(C(=O)c2ccc3c(=O)n(C4CCCC4)c(=S)[nH]c3c2)C1 (centres undefined)	inconclusive [inhibitor, single point]	–

SMILES	Potency	activity change, negative = growth inhibition
Cc1cccc2c3c(ccc12)C1=C(C(=O)C3=O)C(C)CO1 (centres undefined)	–	inactive: -94.9%
Cc1nc2ncnn2c(C)c1CCC(=O)N1CCN(C(=O)c2ccco2)CC1	–	inactive: -21.5%
CCN=C1SC(CC(=O)Nc2ccccc2)C(=O)N1CC (centres undefined)	inactive	–
CCOC(=O)N1CCC(N2CCN(Cc3ccc(C)o3)C(CCO)C2)CC1 (centres undefined)	inconclusive [inhibitor, partial curve]	–
Nc1ncc(-c2ccccc2)c(-c2ccc(OCc3ccccc3)cc2O)n1	inconclusive [inhibitor, single point]	–
COC(=O)c1ccc(Cn2cc(/C=C\[N+](=O)[O-])c3ccccc32)o1	inconclusive [inhibitor, single point]	–
CCc1cnccc1CCC(=O)Nc1ccccc1C	–	inactive: -0.253%
O=C(Nc1nnc(Cc2ccccc2)s1)c1cnccn1	inconclusive [inhibitor, single point]	–
CCC(C)NC(=O)c1ccc2c(c1)S(=O)(=O)c1ccccc1C2=O (centres undefined)	inconclusive [inhibitor, partial curve]	–
Cc1ccc(OCC(=O)N/N=C/C=C/c2ccco2)cc1	active: 7.31 µM	–
CC(C)c1ccc(OCC(=O)Nc2ccc(OC(F)(F)F)cc2)cc1	–	inactive: -27.8%
COc1ccc2nc(-c3ccccn3)ccc2c1	active: 3.26 µM	–
CCc1nc2c(OCc3cccc(OC)c3)cccn2c1N(C)C(=O)c1ccccc1F	inconclusive [inhibitor, single point]	–
CCOC(=O)c1sc(-c2ccc(C(F)(F)F)cc2)nc1O	inconclusive [inhibitor, single point]	–
COc1cc(/C=N/NC(=O)c2ccc(COc3ccccc3Cl)o2)cc(Br)c1O	inconclusive [inhibitor, single point]	–
COc1ccc(OCc2n[nH]c(=S)n2N)cc1	inconclusive [inhibitor, single point]	–
O=C(NC1CCCCC1)c1ccc(CS(=O)(=O)Cc2ccccc2F)o1	inconclusive [inhibitor, single point]	–
O=C(N/N=C/c1ccccc1O)C1SCCCS1	active: 6.51 µM	–
COc1ccc(/C=C/C(=O)OCc2nc3ccccc3c(=O)[nH]2)c(OC)c1	–	inactive: -29.5%
CN(C)c1ccc(C(CNS(=O)(=O)c2ccc(Br)cc2)N2CCCC2)cc1 (centres undefined)	inconclusive [inhibitor, single point]	–
CCCCSc1nnc(-c2ccc(C)cc2)n1C	inconclusive [inhibitor, single point]	–
CCOC(=O)c1cc2c(=O)n3ccccc3nc2n(CCCOC)c1=NC(=O)C(C)(C)Oc1ccc(Cl)cc1	inconclusive [inhibitor, full curve, poor fit]	–
CCc1c(N)nc(N)nc1Nc1ccc(C)c(C)c1	active: 14.6 µM	–
Cn1c(=O)c2c(nc(CN3CCN(C(c4ccccc4)c4ccccc4)CC3)n2CC(N)=O)n(C)c1=O	–	inactive: -13.4%
COc1ccc(C(O)(C2CCCCC2)C(CN2CCOCC2)c2ccccc2)cc1 (centres undefined)	inconclusive [inhibitor, single point]	–

SMILES	Potency	activity change, negative = growth inhibition
O=[N+]([O-])c1cc([N+](=O)[O-])c(Oc2cncc(Cl)c2)cc1NC1CCCCCCC1	active: 14.6 µM	–
CCN(CC)C(C(=O)NC1CCCCC1)c1ccc(C)cc1 (centres undefined)	inconclusive [inhibitor, partial curve]	–
COC(=O)c1ccc(C(=O)NCC2Cc3cc(F)cc(-c4cncnc4)c3O2)cc1 (centres undefined)	inconclusive [inhibitor, single point]	–
CC(C)(C)C(=O)N1CCC2CC1c1cc(-c3ccc4c(c3)OCO4)ccc12 (centres undefined)	active: 23.1 µM	–
COc1ccc(C2NC(=O)NC(c3ccccc3)=C2c2nc3ccccc3s2)cc1 (centres undefined)	inconclusive [inhibitor, single point]	–
CC(=O)c1cc2c(ccc3ccccc32)oc1=O	–	inactive: 11.6%
O=C(O)CN1C(=O)SC(Nc2ccccc2)C1=O (centres undefined)	–	inactive: -2.44%
Cn1c(NCc2cccnc2)nc2cc(-c3ccc(C(=O)N4CCOCC4)cc3)sc2c1=O	inconclusive [inhibitor, single point]	–
Nc1ccc2cc3ccccc3cc2c1	inconclusive [inhibitor, single point]	–
N#CC(C(=S)Nc1ccccc1)c1nc2ccccc2[nH]1 (centres undefined)	active: 5.17 µM	–
CCOC(=O)N/N=C(\C)c1ccc(C)o1	–	inactive: -21%
Cc1ccc2c(CN(C)Cc3ccccc3)cc(=O)oc2c1	inconclusive [inhibitor, single point]	–
O=C(NCC1CCCO1)C(C(=O)c1ccccc1)n1ccccc1=O (centres undefined)	active: 10.3 µM	–
N#Cc1ccc(Oc2ccc(S(=O)(=O)N3CCCCC3)cn2)cc1	inconclusive [inhibitor, single point]	–
CCc1ccc(N2C(=O)CC(c3cc(OC)ccc3OC)C3=C2COC3=O)cc1 (centres undefined)	inconclusive [inhibitor, single point]	–
Cc1cccc2c1-c1sc(C(=O)Nc3nccs3)cc1CO2	inconclusive [inhibitor, single point]	–
Cc1ccc(-n2c(C)cc(C(=O)Cn3nc(C(=O)O)c4ccccc4c3=O)c2C)cc1	inconclusive [inhibitor, single point]	–
Cc1c(Cc2ccccc2)c(=O)[nH]c(=O)n1C	–	inactive: -2.81%
Cn1c(CC(=O)Nc2ccc(Cl)c(Cl)c2)nnc1SCC(=O)N1CCN(c2ccccc2)CC1	inconclusive [inhibitor, single point]	–
CCOc1ccc(C2CC(=O)n3nc(-c4ccc(C)cc4)nc3S2)cc1 (centres undefined)	–	inactive: -22.8%
Cc1cccc(C)c1NC1=NC(=S)N(c2ccc(N(C)C)cc2)C1(C)C	inconclusive [inhibitor, single point]	–
O=C(/C=C/c1ccccc1Cl)N1CCCN(C(=O)/C=C/c2ccccc2Cl)CC1	active: 20.6 µM	–
N#C/C(=C\Nc1ccc2cn[nH]c2c1)c1nc(-c2ccc(Cl)cc2)cs1	active: 23.1 µM	–
CCOc1ccccc1NC(=O)CCCc1nc2ccccc2c(=O)[nH]1	inconclusive [inhibitor, single point]	–
